Measured values published in patent publication US20240025993A1, “CD19 BINDING MOLECULES AND USES THEREOF” (NOVARTIS AG, priority 2020, published 2024).

Key:
[1] = Differential scanning calorimetry, melting temperature of Fc modified anti-CD3 antibodies (Example 35); assay type: physicochemical; details: DSC, 1 mg/ml in PBS pH 7.4, anti-CD3 IgG1 Fc variants
Description: Calorimetric measurements were carried out on a differential scanning micro calorimeter (Nano DSC, TA instruments). The cell volume was 0.5 ml and the heating rate was 1° C./min. All proteins were used at a concentration of 1 mg/m in PBS (pH 7.4). The molar heat capacity of each protein was estimated by comparison with duplicate samples containing identical buffer from which the protein had been omitted. The partial molar heat capacities and melting curves were analyzed using standard procedure. Thermograms were baseline corrected and concentration normalized.

[2] = Aggregation propensity (% HMW) by analytical SEC of IgG1 anti-CD3 antibody and Fc variants (Example 35); assay type: physicochemical; details: PBS pH 7.4, anti-CD3 antibodies
Description: Size exclusion chromatography measurements were performed to evaluate the aggregation propensity (% HMW) of IgG1 antibody and Fc modified derivatives. The produced and purified anti CD3 antibodies were applied to an analytical size exclusion chromatography column (SEC 200, GE Healthcare), equilibrated with PBS buffer pH 7.4.

B1: WT allotype R214K (antibody)
heavy: EVQLVESGGGLVQPGGSLKLSCAASGFTFNTYAMNWVRQASGKGLEWVGRIRSKYNNYATYYADSVKDRFTISRDDSKSTLYLQMNSLKTEDTAVYYCVRHGNFGNSYVSWFAYWGQGTLVTVSS[here human IgG1 constant region without letters]
light: QAVVTQEPSLTVSPGGTVTLTCRSSTGAVTTSNYANWVQQKPGQAPRGLIGGTNKRAPWTPARFSGSLLGDKAALTLSGAQPEDEAEYFCALWYSNLWVFGGGTKLTVLGQPKAAPSVTLFPPSSEELQANKATLVCLISDFYPGAVTVAWKADSSPVKAGVETTTPSKQSNNKYAASSYLSLTPEQWKSHRSYSCQVTHEGSTVEKTVAPTECS
Question: Which “Melting temperature (Tm) of CH2 domain” value [1] does the source give for B1 here?
Answer: 70 °C

Question: What about the “(%) higher molecular weight” value [2] of the same molecule?
Answer: 7.7%
